Hit rate of the full screen: of about 360,000 compounds, about 7,500 (2.1%) were called active. Another 20% or so got no clear call; they are omitted. The call rests on the fitted dose curve; in most records, active means well fitted inhibition curve with a large enough effect; inconclusive means small, poorly fitted or top-dose-only effect, or effect the other way; inactive means flat fitted curve, though single readings scatter. This is a selection; strong and weak results do not stand in their true shares.
Assay: Nrf2 qHTS screen for inhibitors; further: nearly all actives have a fitted effect of over 60% in size
Settings: A549 ARE-Fluc reporter, luciferase luminescence, 18-24 h; series mostly up to 46 µM; activity change, negative = inhibition: at the top concentration
Summary of the method: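 Reporter: ARE-Fluc in A549. Exposure: 18-24 h, 37 °C, 5% CO2, 5% FBS OPTI-MEM. Readouts: fluorescent cytotoxicity (CellTiter-Fluor), then luminescent Nrf2 signal after BugLite.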
On the % scale 0 is the no-effect control and ±100 the full control effect; potency means the concentration at half of the fitted maximal effect.

Row | SMILES | activity change, negative = inhibition | Potency
1 | COc1ccc(NS(=O)(=O)c2nnc(NC(=O)c3ccccc3F)s2)cc1 | inactive: 5.23% | –
2 | COc1ccc(/C=C2/CCOC2=O)cc1 | inactive: 22.4% | –
3 | Cc1ccc(CN2C(=O)[C@H]3Cc4c([nH]c5ccccc45)C(C)(C)N3C2=O)cc1 | inactive: 0.201% | –
4 | COc1ccccc1-n1cnc2c(c1=O)c1nc3ccccc3nc1n2-c1ccc(C)c(C)c1 | – | active: 5.8 µM
5 | Cc1ccc(NC(=O)Cn2nnc(C(=O)NCc3cccs3)c2N)cc1Cl | inactive: -9.95% | –
6 | Cc1c(N2C(=O)/C(=C/C3CC=CCC3)SC2=S)c(=O)n(-c2ccccc2)n1C (stereo not drawn) | inactive: -27.2% | –
7 | CC1CCN(CC(=O)N2CCCc3c2c(=O)oc2ccc(OCc4ccccc4)cc32)CC1 | inactive: -20% | –
8 | Nc1cc(S(=O)(=O)Nc2ccccc2Cl)ccc1N1CCCCC1 | – | active: 7.31 µM
9 | NS(=O)(=O)c1ccc(NC(=O)c2cc(-c3cccs3)nc3ccccc23)cc1 | inactive: 10.1% [at 9.27 µM] | –
10 | Cc1noc(C)c1-c1ccc2ncnc(NC(C)c3ccco3)c2c1 (stereo not drawn) | inactive: -25% | –
11 | COc1cc(CNCc2ccc(OC)cc2OC)cc(OC)c1 | – | active: 7.31 µM
12 | Cc1ccc(NC(=O)C2=CC(c3cccs3)=NS(=O)(=O)N2C)cc1 | inactive: -22.7% | –
13 | CC(C)c1ccc2c(c1)CC[C@H]1[C@](C)(CN)CCC[C@]21C | inactive: 2.28% | –
14 | CCCCNC(=O)CCC(=O)NNc1nc2ccccc2c2nc(-c3ccccc3)nn12 | inactive: 11.2% | –
15 | O=C1OC[C@@H]2CCCN2C(=O)[C@@H](CC(=O)N(CCO)Cc2ccccc2)C/C=C\CC[C@H]1Cc1ccc(F)cc1 | inactive: -13.4% | –
16 | CCOc1ccc(N=C(/C(C(=O)C(=O)N2CCOCC2)=C(/O)c2ccccc2)c2ccccc2)cc1 | inactive: 20.4% | –
17 | N#C/C(=C\c1ccc(-c2ccccc2C(=O)O)o1)c1nc2ccccc2[nH]1 | inactive: 3.7% | –
18 | Cc1nnc(Sc2c(-c3ccccc3)c3ccc(Cl)cc3[nH]c2=O)s1 | – | active: 18.4 µM
19 | C=C1CCN([C@@H](CC(C)C)C(=O)NCc2ccc(Cl)c(Cl)c2)S(=O)(=O)c2ccccc21 | inactive: -16.1% | –
20 | Cc1ccc(-c2ccc(=O)n(Cc3ccc(F)cc3)n2)cc1 | inactive: -14.3% | –
21 | CC(=O)C1=C(C)N(Cc2ccccc2)C(=O)N[C@@H]1c1cccc(C(F)(F)F)c1 | inactive: -15.3% | –
22 | CCCN(CCC)CCCNC(=O)C1CCC(CNS(=O)(=O)c2cccc3nsnc23)CC1 (stereo not drawn) | inactive: 5.95% | –

Row | SMILES | activity change, negative = inhibition | Potency
23 | Cc1ccc(C(C)(C)C)cc1S(=O)(=O)N1CCC(C(=O)N2CCN(c3ccc(O)cc3)CC2)CC1 | – | active: 9.2 µM
24 | NC(=O)C1=C[C@@H](C2CCCCC2)C[C@@H](OCc2ccc(CO)cc2)O1 | inactive: 0.627% | –
25 | CCC(CC)C(=O)Nc1ccc(-c2cn3cccnc3n2)cc1 | inactive: -19.7% | –
26 | C=CC[C@@H](CC(=O)N[C@H](CO)Cc1ccccc1)C(=O)N[C@@H](COC(=O)[C@@H](CC=C)CC(=O)OC(C)(C)C)Cc1c[nH]c2ccccc12 | inactive: 8.47% | –
27 | CC(C)(C)OC(=O)C[C@H]1C/C=C\C[C@H](CC(=O)N[C@H](CO)Cc2ccccc2)C(=O)N[C@@H](Cc2ccccc2)COC1=O | inactive: 0.148% | –
28 | C[C@H](NC(=O)c1nc[nH]c1C(=O)OCc1ccccc1)c1ccccc1 | inactive: -28.1% | –
29 | Cc1ccc(S(=O)(=O)Nc2cccc(C(=O)NC3CCN(Cc4ccccc4)CC3)c2)cc1F | – | active: 10.3 µM
30 | Cn1c(=O)cc(OCC(=O)N2CCN(c3ccccc3F)CC2)c2ccccc21 | inactive: 10.7% | –
31 | C#Cc1ccc([C@H]2C=C(C(=O)N3CCN(Cc4ccc5c(c4)OCO5)CC3)O[C@@H](OCC)[C@@H]2CCCO)cc1 | inactive: -16.9% | –
32 | COC(=O)/C(=C1\Oc2ccc(C(C)(C)C)cc2S1)C(F)(F)F | inactive: 20.5% | –
33 | C[c-]1[c-](C)[c-](C)[c-](C)[c-]1C.[Fe].c1cc2nccc(N3CCCC3)[c-]2c1 (stereo not drawn) | inactive: -20.1% | –
34 | O=C(COCc1cc(-c2ccc3c(c2)OCO3)on1)N1CCN(c2cccc(C(F)(F)F)c2)CC1 | inactive: -26% | –
35 | COc1ccc(CN2C(=O)c3ccccc3C2C(=O)NC2CCCCCC2)c(OC)c1 (stereo not drawn) | inactive: -18.8% | –
36 | Cc1ccc2c(c1)sc1nc(=O)n(-c3cccc(Cl)c3)c(=O)n12 | inactive: 4.31% | –
37 | COc1cc2nc(N3CCN(C(=O)[C@@H]4CCCO4)CC3)nc(N)c2cc1OC | inactive: -5.69% | –
38 | CN1C(=O)S/C(=C\c2ccccc2OCc2ccc(C(=O)O)cc2)C1=O | inactive: -23.3% | –
39 | CCOC(=O)c1ccc(NC(=O)C2CCCN(c3cnccn3)C2)cc1 (stereo not drawn) | inactive: 1.16% | –
40 | COc1ccc(CNS(=O)(=O)c2csc(C(N)=O)c2)cc1OC | inactive: -1.54% | –
41 | O=C(Nc1ccccc1)C1=C[C@@H](c2ccc(C(F)(F)F)cc2)C[C@@H](OCCCCO)O1 | inactive: 25.2% | –
42 | O=C1N=C(N2CCOCC2)S/C1=C\c1ccc(-c2ccccc2Cl)o1 | inactive: -3.47% | –
43 | Cc1ccc(S(=O)(=O)NC(C(=O)OCC(=O)NC(=O)c2cccn2C)C(C)C)cc1 (stereo not drawn) | inactive: 6.3% | –

— PubChem BioAssay AID504444 (National Center for Advancing Translational Sciences (NCATS), 2011)
